Among all 410,000 compounds or so, about 5,000 (1.2%) were called active. The inconclusive results got no clear call from the source; some entries with a clear call stand among them for comparison. The call rests on the fitted dose curve; in most records, active means well fitted inhibition curve with a large enough effect; inconclusive means small, poorly fitted or top-dose-only effect; inactive means no such curve, though single readings can be large or run the other way. Potencies beside an inconclusive call are fits to weak or partial responses and may not hold up.
assay: qHTS for Inhibitors of TGF-b; conditions: HepG2 CAGA-GFP TGF-b/SMAD3 reporter, GFP fluorescence, 18 h, TGF-beta stimulated, 500 pg/mL final; series mostly up to 46.1 µM; further: nearly all actives have a fitted effect of over 65% in size
In short: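 First, reporter cells (HEPG2 CAGA-GFP) rested 2 h at 37 degrees C. Next, compounds were pinned in and TGF-beta added to 500 pg/mL final. After 18 h, GFP was imaged per cell and summed per well.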
Potency means the concentration at half of the fitted maximal effect; tags describe the fitted curve by direction and shape.

Compound | Potency
C=C(CN(C)C)C(=O)c1ccc(OC2OC(COC(C)=O)C(OC(C)=O)C(OC(C)=O)C2OC(C)=O)cc1 (stereo unspecified) | inconclusive: 1.58 µM [inhibitor, partial curve, poor fit]
CCCCC[C@H]1CN(Cc2ccccc2)C(=O)[C@@H]1CC(=O)NCc1ccc(OC)cc1 | active: 10 µM
O=C(Nc1ccccc1)n1cc(-c2ccccn2)c(N2CCOCC2)n1 | inconclusive: 2.82 µM [inhibitor, partial curve, poor fit]
COc1ccc(N2CCN(C(=O)c3cc4c(=O)n(Cc5ccco5)ccc4nc3C)CC2)cc1 | inconclusive: 7.94 µM [inhibitor, partial curve, poor fit]
O=C(CSc1nccn1Cc1ccc(Cl)cc1)Nc1nc2ccccc2s1 | inconclusive: 22.4 µM [inhibitor, single point]
CC(C)[C@@H](C(=O)NC1CCN(Cc2ccccc2)CC1)N1C(=O)N2CCc3c([nH]c4ccccc34)[C@@]2(C)C1=O | inconclusive: 35.5 µM [inhibitor, single point]
C[C@H]1COC(=O)[C@@H](CC(=O)OC(C)(C)C)C/C=C\C[C@@H](CC(=O)N[C@H](CO)Cc2ccccc2)C(=O)N1 | inactive
COc1cc2oc(=O)cc(CN3CCCC3)c2cc1Cl | inconclusive: 8.91 µM [inhibitor, partial curve, poor fit]
O=C(NCCc1ccccn1)c1cc(C(=O)C2CCCCC2)c[nH]1 | inconclusive: 0.112 µM [inhibitor, full curve, poor fit]
Cc1ccc(S(=O)(=O)N2C[C@H]3[C@H]4C(=O)N(C5CCCCC5)C(=O)[C@H]4CC(=O)[C@H]3[C@@H]2c2ccccc2F)cc1 | inconclusive: 6.31 µM [inhibitor, single point]
CCCC(=O)Nc1cc(OC)c(NC(=S)Nc2cccc(C)c2)cc1OC | inactive
COC(=O)C1=C(C)N(C(C)C)C(=O)C1(NC(=O)c1ccccc1OC)C(F)(F)F (stereo unspecified) | inactive
Cc1c(C=NCCOCc2ccccc2)cnn1C | inconclusive: 35.5 µM [inhibitor, single point]
NS(=O)(=O)c1ccc(O)c(NC(=O)c2ccc([N+](=O)[O-])o2)c1 | inactive
CCCCCn1c(CCCNC(=O)c2ccc(Cl)cc2)nc2ccccc21 | inconclusive: 14.1 µM [inhibitor, single point]
CCOCCCn1c(=N)c(S(=O)(=O)c2ccc(C)cc2)cc2c(=O)n3cc(C)ccc3nc21 | inactive
CCc1cccc2c(C(O)(c3c[nH]c4c(CC)cccc34)c3c[nH]c4c(CC)cccc34)c[nH]c12 | inconclusive: 11.2 µM [inhibitor, partial curve, poor fit]
CCCNC(=O)N1CCN(S(=O)(=O)c2ccc(C)c(C)c2)CC1 | inactive
O=C(O)c1nn(CC(=O)N2CCCCCC2)c(=O)c2ccccc12 | inconclusive: 5.01 µM [inhibitor, partial curve, poor fit]
C=C(C)COc1ccc(-c2nc(N)ncc2Oc2ccccc2OC)c(O)c1 | inconclusive: 35.5 µM [inhibitor, single point]
CCc1ccc(NC(=O)CSc2nc3c(c(=O)[nH]2)CN(Cc2ccc4c(c2)OCO4)CC3)cc1 | inconclusive: 14.1 µM [inhibitor, partial curve, poor fit]

Compound | Potency
CCOc1ccc(C2C(C(=O)c3ccc(C)o3)=C(O)C(=O)N2c2cc(C)on2)cc1OC (stereo unspecified) | inactive
COC(=O)c1[nH]c2ccc(C)cc2c1NC(=O)CCN1CCN(Cc2ccc3c(c2)OCO3)CC1 | inconclusive: 15.8 µM [inhibitor, single point]
O=C(COc1ccccc1)NCC(c1ccc(Cl)cc1)N1CCCCC1 (stereo unspecified) | inactive
CC(C)N(C(=O)[C@H]1C[C@H](CC(=O)NCc2cccc(C(F)(F)F)c2)C(=O)N2CCc3c([nH]c4cc(CCC(=O)N(C)C)ccc34)[C@]12C)C(C)C | inconclusive: 7.08 µM [inhibitor, partial curve, poor fit]
COc1ccc(-c2cncnc2-c2ccc(OC)cc2O)cc1 | inactive
O=C(N/N=C/c1ccco1)c1cc([N+](=O)[O-])cc([N+](=O)[O-])c1 | inconclusive: 1.78 µM [inhibitor, partial curve, poor fit]
COc1cc(/C=C/c2cncc(/C=C/c3cc(OC)c(OC)c(OC)c3)c2)cc(OC)c1OC | inactive
COc1cc(/C=C/C(=O)OCC(=O)NC(=O)NC2CCCCC2C)ccc1OC(F)F (stereo unspecified) | inconclusive: 35.5 µM [inhibitor, single point]
CCOC(=O)N1CCN(C(=O)c2ccc3c(c2)N(Cc2ccccc2F)C(=O)c2ccccc2S3(=O)=O)CC1 | inconclusive: 17.8 µM [inhibitor, partial curve, poor fit]
Cc1cc(C)cc(NCc2cc(=O)oc3cc(-c4ccccc4)c(O)cc23)c1 | inconclusive: 12.6 µM [inhibitor, single point]
Cc1sc(NC(=O)c2ccccc2)c(C(c2ccc(Cl)cc2)N2CCN(CCO)CC2)c1C (stereo unspecified) | inconclusive: 35.5 µM [inhibitor, single point]
CC(=O)N1CN(Cc2ccccn2)Cc2c1sc1c2CCCC1 | inconclusive: 2.82 µM [inhibitor, single point]
CC(NC(=O)COC(=O)c1cc(Cl)nc(Cl)c1)c1ccccc1 (stereo unspecified) | inconclusive: 6.31 µM [inhibitor, single point]
C=CCC(=O)OCC(=O)Nc1ccc(Cl)cn1 | inconclusive: 35.5 µM [inhibitor, partial curve, poor fit]
Cc1ccc(-n2cc(CNCCCN3CCCC3=O)c(-c3ccc(F)cc3)n2)cc1 | inconclusive: 11.2 µM [inhibitor, partial curve, poor fit]
CCOc1ccc(Nc2cc(C(=O)NCc3ccccc3Cl)c3ccccc3n2)cc1 | inactive
Cc1cccc(NC(=O)Cn2c(=O)n(CCCCCC(=O)NCc3ccccc3)c(=O)c3sccc32)c1 | inconclusive: 35.5 µM [inhibitor, single point]
CC(Oc1ccc2oc3ccccc3c2c1)C(=O)NC12CC3CC(CC(C3)C1)C2 (stereo unspecified) | inconclusive: 35.5 µM [inhibitor, single point]
CN(Cc1ccccc1)C(=O)c1ccc(CSc2nc3cccnc3n2Cc2ccccc2F)cc1 | inconclusive: 22.4 µM [inhibitor, partial curve, poor fit]
Cc1ccc2[nH]c(O)c(N=NC(N)=S)c2c1 | inconclusive: 35.5 µM [inhibitor, single point]
CC(C)CCNCC(O)CON=C1c2ccccc2-c2ccccc21 (stereo unspecified) | inconclusive: 7.08 µM [inhibitor, single point]

Compound | Potency
CCC(C)[C@H]1CNC(=O)C(=O)N1CCCc1cc(OC)c(OC)c(OC)c1 (stereo partly specified) | inconclusive: 0.794 µM [inhibitor, full curve, poor fit]
CC(C)(C)C(=O)OC/C(N)=N/OC(=O)c1ccccc1 | inactive
C[C@@]12C(=O)Nc3ccc(F)cc3C(=O)N1[C@H]1c3ccccc3OC[C@@H]1[C@@H]2c1ccccc1 | inactive
c1ccc(COc2cccc(-c3cc4nc(NCCOc5ccccc5)ccn4n3)c2)cc1 | inconclusive: 35.5 µM [inhibitor, single point]
CC(=O)Nc1ccc(Nc2cc(C)nc3c(-c4ccccc4)cnn23)cc1 | inactive
COc1cccc(OCCNC(=O)c2cc(OC)c(OC)c(OC)c2)c1 | inactive
CC(C#N)Sc1ccc(S(=O)(=O)N2CCCC2)cn1 (stereo unspecified) | inconclusive: 6.31 µM [inhibitor, single point]
CCN1CCN(C/C(C)=C/c2ccccc2)CC1 | inconclusive: 6.31 µM [inhibitor, single point]
CC(C)N(C(=O)CSc1cn(CC(=O)N2CCCCCC2)c2ccccc12)C(C)C | active: 12.6 µM
Cc1cccc(CC(=O)N2CC(=O)Nc3ccc(Br)cc3C2c2ccc(F)cc2)c1 (stereo unspecified) | inconclusive: 35.5 µM [inhibitor, single point]
O=C(NCc1cccs1)c1cc(-c2ccc(O)cc2)on1 | inconclusive: 14.1 µM [inhibitor, single point]
Cc1ccc(C(=O)N2CC3(C(C)C)CN(C(=O)c4ccc(C)cc4)CC(C(C)C)(C2)C3=O)cc1 | inactive
CCOC(=O)c1cc2c(=Cc3ccc(N(C)C)cc3)c3ccccc3n2[n+]1C | inconclusive: 7.94 µM [inhibitor, partial curve, poor fit]
c1ccc(-c2ccc(C3=Nn4c(Cn5nnc6ccccc65)nnc4SC3)cc2)cc1 | inconclusive: 35.5 µM [inhibitor, single point]
C=CC[C@H](CC(=O)N(CCO)Cc1ccccc1)C(=O)NC[C@H](OC(=O)[C@@H](CC=C)Cc1ccc(F)cc1)c1ccccc1 | inconclusive: 25.1 µM [inhibitor, single point]
CN(C)CCCC1Sc2ccccc2Sc2ccccc21 (stereo unspecified) | inconclusive: 31.6 µM [inhibitor, single point]
N=C1SC(c2ccccc2)C(=O)N1c1ncc(Cc2ccccc2Cl)s1 (stereo unspecified) | inconclusive: 15.8 µM [inhibitor, single point]
COC(=O)C1CCN(S(=O)(=O)c2c(C)n(C)c(=O)n(C)c2=O)CC1 | inconclusive: 0.112 µM [inhibitor, full curve, poor fit]
CC1C(=O)N(Cc2cn(Cc3ccco3)nn2)CCS(=O)(=O)N1Cc1ccc(-c2ccc(Cl)c(Cl)c2)cc1 (stereo unspecified) | inconclusive: 15.8 µM [inhibitor, partial curve, poor fit]

Reference: PubChem BioAssay AID588855 (National Center for Advancing Translational Sciences (NCATS), 2011)
